Assay results as given in the supplement of paper PMC8728848.
This is one part of the list.

Assays:
Assay in all cases: glycan array binding signal (z-score within array); higher = stronger binding
Settings in all cases: glycan notation: IUPAC condensed, linker removed; mutation: E41A
[1] = molecular target: Fuc(a1-2)[GalNAc(b1-3)]Gal
In short: (§1)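 From the Consortium for Functional Glycomics database, 3228 arrays were curated, keeping only those whose protein sequence was available. Binding is given as a within-array Z-score averaged across arrays sharing a protein sequence and across linkers. Negative Z-scores can be read as non-binding.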

[2] = molecular target: Fuc(a1-3)GlcNAc
In short: as §1

[3] = molecular target: Fuc(a1-3)[Gal(b1-4)]Glc6S
In short: as §1

[4] = molecular target: Fuc(a1-3)[Gal(b1-4)]GlcNAc
In short: as §1

[5] = molecular target: Fuc(a1-3)[Gal(b1-4)]GlcNAc(b1-2)Man
In short: as §1

[6] = molecular target: Fuc(a1-3)[Gal(b1-4)]GlcNAc(b1-2)Man(a1-3)[Fuc(a1-3)[Gal(b1-4)]GlcNAc(b1-2)Man(a1-6)]Man(b1-4)GlcNAc(b1-4)GlcNAc
In short: as §1

[7] = molecular target: Fuc(a1-3)[Gal(b1-4)]GlcNAc(b1-2)Man(a1-3)[Fuc(a1-3)[Gal(b1-4)]GlcNAc(b1-2)Man(a1-6)]Man(b1-4)GlcNAc(b1-4)[Fuc(a1-6)]GlcNAc
In short: as §1

[8] = molecular target: Fuc(a1-3)[Gal(b1-4)]GlcNAc(b1-3)Gal(b1-3)[Fuc(a1-4)]GlcNAc
In short: as §1

[9] = molecular target: Fuc(a1-3)[Gal(b1-4)]GlcNAc(b1-3)Gal(b1-4)[Fuc(a1-3)]GlcNAc
In short: as §1

[10] = molecular target: Fuc(a1-3)[Gal(b1-4)]GlcNAc(b1-3)Gal(b1-4)[Fuc(a1-3)]GlcNAc(b1-3)Gal(b1-4)[Fuc(a1-3)]GlcNAc
In short: as §1

[11] = molecular target: Fuc(a1-3)[Gal(b1-4)]GlcNAc(b1-3)GalNAc
In short: as §1

[12] = molecular target: Fuc(a1-3)[Gal(b1-4)]GlcNAc(b1-6)GalNAc
In short: as §1

[13] = molecular target: Fuc(a1-3)[Gal(b1-4)]GlcNAc(b1-6)[Gal(b1-3)GlcNAc(b1-3)]Gal(b1-4)Glc
In short: as §1

[14] = molecular target: Fuc(a1-3)[Gal(b1-4)]GlcNAc6S
In short: as §1

[15] = molecular target: Fuc(a1-3)[Gal3S(b1-4)]Glc
In short: as §1

[16] = molecular target: Fuc(a1-3)[Gal3S(b1-4)]GlcNAc
In short: as §1

[17] = molecular target: Fuc(a1-3)[Gal3S(b1-4)]GlcNAc6S
In short: as §1

[18] = molecular target: Fuc(a1-3)[GalNAc(b1-4)]GlcNAc
In short: as §1

[19] = molecular target: Fuc(a1-3)[GalNAc(b1-4)]GlcNAc6S
In short: as §1

[20] = molecular target: Fuc(a1-4)GlcNAc
In short: as §1

[21] = molecular target: Fuc(b1-3)GlcNAc
In short: as §1

[22] = molecular target: Gal(a1-2)Gal
In short: as §1

[23] = molecular target: Gal(a1-3)Gal
In short: as §1

[24] = molecular target: Gal(a1-3)Gal(b1-3)GlcNAc
In short: as §1

[25] = molecular target: Gal(a1-3)Gal(b1-3)GlcNAc(b1-2)Man
In short: as §1

[26] = molecular target: Gal(a1-3)Gal(b1-3)GlcNAc(b1-2)Man(a1-3)[Gal(a1-3)Gal(b1-3)GlcNAc(b1-2)Man(a1-6)]Man(b1-4)GlcNAc(b1-4)GlcNAc
In short: as §1

[27] = molecular target: Gal(a1-3)Gal(b1-3)GlcNAc(b1-3)GalNAc
In short: as §1

[28] = molecular target: Gal(a1-3)Gal(b1-3)GlcNAc(b1-6)GalNAc
In short: as §1

[29] = molecular target: Gal(a1-3)Gal(b1-3)[Fuc(a1-4)]GlcNAc(b1-2)Man(a1-3)[Gal(a1-3)Gal(b1-3)[Fuc(a1-4)]GlcNAc(b1-2)Man(a1-6)]Man(b1-4)GlcNAc(b1-4)GlcNAc
In short: as §1

[30] = molecular target: Gal(a1-3)Gal(b1-4)Glc
In short: as §1

[31] = molecular target: Gal(a1-3)Gal(b1-4)GlcNAc
In short: as §1

[32] = molecular target: Gal(a1-3)Gal(b1-4)GlcNAc(b1-2)Man
In short: as §1

[33] = molecular target: Gal(a1-3)Gal(b1-4)GlcNAc(b1-2)Man(a1-3)[Gal(a1-3)Gal(b1-4)GlcNAc(b1-2)Man(a1-6)]Man(b1-4)GlcNAc(b1-4)GlcNAc
In short: as §1

[34] = molecular target: Gal(a1-3)Gal(b1-4)GlcNAc(b1-3)GalNAc
In short: as §1

[35] = molecular target: Gal(a1-3)Gal(b1-4)GlcNAc(b1-6)GalNAc
In short: as §1

[36] = molecular target: Gal(a1-3)Gal(b1-4)[Fuc(a1-3)]GlcNAc
In short: as §1

[37] = molecular target: Gal(a1-3)Gal(b1-4)[Fuc(a1-3)]GlcNAc(b1-2)Man(a1-3)[Gal(a1-3)Gal(b1-4)[Fuc(a1-3)]GlcNAc(b1-2)Man(a1-6)]Man(b1-4)GlcNAc(b1-4)GlcNAc
In short: as §1

[38] = molecular target: Gal(a1-3)GalNAc
In short: as §1

[39] = molecular target: Gal(a1-3)[Gal(a1-4)]Gal(b1-4)GlcNAc
In short: as §1

[40] = molecular target: Gal(a1-4)Gal(b1-3)GlcNAc(b1-2)Man(a1-3)[Gal(a1-4)Gal(b1-3)GlcNAc(b1-2)Man(a1-6)]Man(b1-4)GlcNAc(b1-4)GlcNAc
In short: as §1

[41] = molecular target: Gal(a1-4)Gal(b1-4)Glc
In short: as §1

[42] = molecular target: Gal(a1-4)Gal(b1-4)GlcNAc
In short: as §1

[43] = molecular target: Gal(a1-4)Gal(b1-4)GlcNAc(b1-2)Man(a1-3)[Gal(a1-4)Gal(b1-4)GlcNAc(b1-2)Man(a1-6)]Man(b1-4)GlcNAc(b1-4)GlcNAc
In short: as §1

[44] = molecular target: Gal(a1-4)Gal(b1-4)GlcNAc(b1-3)Gal(b1-4)Glc
In short: as §1

[45] = molecular target: Gal(a1-4)GlcNAc
In short: as §1

B1: CVN-E41G (protein)
chain: MHHHHHHENLYFQSGNFSQACYNSAIQGSVLTSTCIRTNGGYNTSSIDLNSVIANVDGSLKWQGSNFIETCRNTQLAGSSELAAECKTRAQQFVSTKINLDDHIAAIDGTLKYE
glycan array binding signal (z-score) [1]: -0.18
glycan array binding signal (z-score) [2]: -0.238
glycan array binding signal (z-score) [3]: -0.218
glycan array binding signal (z-score) [4]: -0.194
glycan array binding signal (z-score) [5]: -0.143
glycan array binding signal (z-score) [6]: -0.166
glycan array binding signal (z-score) [7]: -0.133
glycan array binding signal (z-score) [8]: -0.148
glycan array binding signal (z-score) [9]: 0.014
glycan array binding signal (z-score) [10]: -0.209
glycan array binding signal (z-score) [11]: -0.194
glycan array binding signal (z-score) [12]: -0.161
glycan array binding signal (z-score) [13]: -0.195
glycan array binding signal (z-score) [14]: -0.008
glycan array binding signal (z-score) [15]: -0.171
glycan array binding signal (z-score) [16]: -0.207
glycan array binding signal (z-score) [17]: -0.202
glycan array binding signal (z-score) [18]: -0.204
glycan array binding signal (z-score) [19]: -0.247
glycan array binding signal (z-score) [20]: 1.24
glycan array binding signal (z-score) [21]: -0.126
glycan array binding signal (z-score) [22]: -0.221
glycan array binding signal (z-score) [23]: -0.227
glycan array binding signal (z-score) [24]: -0.192
glycan array binding signal (z-score) [25]: -0.163
glycan array binding signal (z-score) [26]: -0.027
glycan array binding signal (z-score) [27]: -0.18
glycan array binding signal (z-score) [28]: -0.199
glycan array binding signal (z-score) [29]: 1.41
glycan array binding signal (z-score) [30]: -0.222
glycan array binding signal (z-score) [31]: -0.208
glycan array binding signal (z-score) [32]: -0.123
glycan array binding signal (z-score) [33]: -0.229
glycan array binding signal (z-score) [34]: -0.225
glycan array binding signal (z-score) [35]: -0.191
glycan array binding signal (z-score) [36]: -0.243
glycan array binding signal (z-score) [37]: -0.085
glycan array binding signal (z-score) [38]: -0.209
glycan array binding signal (z-score) [39]: -0.221
glycan array binding signal (z-score) [40]: 0.159
glycan array binding signal (z-score) [41]: -0.176
glycan array binding signal (z-score) [42]: -0.135
glycan array binding signal (z-score) [43]: 0.1
glycan array binding signal (z-score) [44]: -0.177
glycan array binding signal (z-score) [45]: -0.225
